# Results taken from the supplement of paper PMC8728848.
# The list shows a part of the results.
# B1: Di AAL2 (Agrocybe aegerita) (protein)
# chain: MTSNVITQDLPIPVASRGFADIVGFGLDGVVIGRNAVNLQPFLAVKNFAQNAGGWLTTKHVRLIADTTGTGKGDIVGFGNAGVYVSVNNGKNTFADPPKMVIANFGYDAGGWRVEKHLRYLADIRKIGRADIIGFGEKGVLVSRNNGGLNFGPATLVLKDFGYDAGGWRLDRHLRFLADVTGNGHLDIVGFGDKHVFISRNNGDGTFAPAKSVIDNFCIDAGGWKIGDHPRFVADLTGDGTADIIGCGKAGCWVALNNGGGVFGQVKLVINDFGTDKGWQAAKHPRFIADLTGNGRGDVVGFGNAGVYVALNNGDGTFQSAKLVLKDFGVQQGWTVSKHRRFVVDLTGDGCADIIGFGEKETLVSYNDGKGNFGPVKALTNDFSFSGGKWAPETTVCWMANLDSSRHPAPAPMTSNVITQDLPIPVASRGFADIVGFGLDGVVIGRNAVNLQPFLAVKNFAQNAGGWLTTKHVRLIADTTGTGKGDIVGFGNAGVYVSVNNGKNTFADPPKMVIANFGYDAGGWRVEKHLRYLADIRKIGRADIIGFGEKGVLVSRNNGGLNFGPATLVLKDFGYDAGGWRLDRHLRFLADVTGNGHLDIVGFGDKHVFISRNNGDGTFAPAKSVIDNFCIDAGGWKIGDHPRFVADLTGDGTADIIGCGKAGCWVALNNGGGVFGQVKLVINDFGTDKGWQAAKHPRFIADLTGNGRGDVVGFGNAGVYVALNNGDGTFQSAKLVLKDFGVQQGWTVSKHRRFVVDLTGDGCADIIGFGEKETLVSYNDGKGNFGPVKALTNDFSFSGGKWAPETTVCWMANLDSSRH
# Key:
# Assay in all cases: glycan array binding signal (z-score within array); higher = stronger binding
# Settings in all cases: glycan notation: IUPAC condensed, linker removed
# [1] = target: Fuc(a1-2)[Gal(a1-3)]Gal(b1-4)GlcNAc(b1-2)Man(a1-3)[Fuc(a1-2)[Gal(a1-3)]Gal(b1-4)GlcNAc(b1-2)Man(a1-6)]Man(b1-4)GlcNAc(b1-4)GlcNAc
# Procedure, shortened: (§1)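 The Consortium for Functional Glycomics database supplied 3228 glycan arrays, of which those lacking an available protein sequence were dropped. The binding signal, a within-array Z-score, was averaged across arrays of the same protein sequence and across linkers. Negative scores can be read as non-binding.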
# [2] = target: Fuc(a1-2)[Gal(a1-3)]Gal(b1-4)GlcNAc(b1-2)Man(a1-3)[Fuc(a1-2)[Gal(a1-3)]Gal(b1-4)GlcNAc(b1-2)Man(a1-6)]Man(b1-4)GlcNAc(b1-4)[Fuc(a1-6)]GlcNAc
# Procedure, shortened: as §1
# [3] = target: Fuc(a1-2)[Gal(a1-3)]Gal(b1-4)GlcNAc(b1-3)GalNAc
# Procedure, shortened: as §1
# [4] = target: Fuc(a1-2)[Gal(a1-3)]Gal(b1-4)GlcNAc(b1-3)[Fuc(a1-2)[Gal(a1-3)]Gal(b1-4)GlcNAc(b1-6)]GalNAc
# Procedure, shortened: as §1
# [5] = target: Fuc(a1-2)[Gal(a1-3)]Gal(b1-4)GlcNAc(b1-6)GalNAc
# Procedure, shortened: as §1
# [6] = target: Fuc(a1-2)[Gal(a1-3)]Gal(b1-4)[Fuc(a1-3)]Glc
# Procedure, shortened: as §1
# [7] = target: Fuc(a1-2)[Gal(a1-3)]Gal(b1-4)[Fuc(a1-3)]GlcNAc
# Procedure, shortened: as §1
# [8] = target: Fuc(a1-2)[Gal(a1-3)]Gal(b1-4)[Fuc(a1-3)]GlcNAc(b1-3)GalNAc
# Procedure, shortened: as §1
# [9] = target: Fuc(a1-2)[Gal(a1-4)]Gal(b1-4)GlcNAc
# Procedure, shortened: as §1
# [10] = target: Fuc(a1-2)[GalNAc(a1-3)]Gal
# Procedure, shortened: as §1
# [11] = target: Fuc(a1-2)[GalNAc(a1-3)]Gal(b1-3)GalNAc(a1-3)[Fuc(a1-2)]Gal(b1-4)GlcNAc
# Procedure, shortened: as §1
# [12] = target: Fuc(a1-2)[GalNAc(a1-3)]Gal(b1-3)GalNAc(b1-3)Gal(a1-4)Gal(b1-4)Glc
# Procedure, shortened: as §1
# [13] = target: Fuc(a1-2)[GalNAc(a1-3)]Gal(b1-3)GlcNAc
# Procedure, shortened: as §1
# [14] = target: Fuc(a1-2)[GalNAc(a1-3)]Gal(b1-3)GlcNAc(b1-2)Man(a1-3)[Fuc(a1-2)[GalNAc(a1-3)]Gal(b1-3)GlcNAc(b1-2)Man(a1-6)]Man(b1-4)GlcNAc(b1-4)GlcNAc
# Procedure, shortened: as §1
# [15] = target: Fuc(a1-2)[GalNAc(a1-3)]Gal(b1-3)GlcNAc(b1-2)Man(a1-3)[Fuc(a1-2)[GalNAc(a1-3)]Gal(b1-3)GlcNAc(b1-2)Man(a1-6)]Man(b1-4)GlcNAc(b1-4)[Fuc(a1-6)]GlcNAc
# Procedure, shortened: as §1
# [16] = target: Fuc(a1-2)[GalNAc(a1-3)]Gal(b1-3)GlcNAc(b1-3)GalNAc
# Procedure, shortened: as §1
# [17] = target: Fuc(a1-2)[GalNAc(a1-3)]Gal(b1-3)GlcNAc(b1-6)GalNAc
# Procedure, shortened: as §1
# [18] = target: Fuc(a1-2)[GalNAc(a1-3)]Gal(b1-4)Glc
# Procedure, shortened: as §1
# [19] = target: Fuc(a1-2)[GalNAc(a1-3)]Gal(b1-4)GlcNAc
# Procedure, shortened: as §1
# [20] = target: Fuc(a1-2)[GalNAc(a1-3)]Gal(b1-4)GlcNAc(b1-2)Man
# Procedure, shortened: as §1
# [21] = target: Fuc(a1-2)[GalNAc(a1-3)]Gal(b1-4)GlcNAc(b1-2)Man(a1-3)[Fuc(a1-2)[GalNAc(a1-3)]Gal(b1-4)GlcNAc(b1-2)Man(a1-6)]Man(b1-4)GlcNAc(b1-4)GlcNAc
# Procedure, shortened: as §1
# [22] = target: Fuc(a1-2)[GalNAc(a1-3)]Gal(b1-4)GlcNAc(b1-2)Man(a1-3)[Fuc(a1-2)[GalNAc(a1-3)]Gal(b1-4)GlcNAc(b1-2)Man(a1-6)]Man(b1-4)GlcNAc(b1-4)[Fuc(a1-6)]GlcNAc
# Procedure, shortened: as §1
# [23] = target: Fuc(a1-2)[GalNAc(a1-3)]Gal(b1-4)GlcNAc(b1-3)Gal(b1-4)GlcNAc
# Procedure, shortened: as §1
# [24] = target: Fuc(a1-2)[GalNAc(a1-3)]Gal(b1-4)GlcNAc(b1-3)Gal(b1-4)GlcNAc(b1-3)Gal(b1-4)GlcNAc
# Procedure, shortened: as §1
# [25] = target: Fuc(a1-2)[GalNAc(a1-3)]Gal(b1-4)GlcNAc(b1-3)GalNAc
# Procedure, shortened: as §1
# [26] = target: Fuc(a1-2)[GalNAc(a1-3)]Gal(b1-4)GlcNAc(b1-3)[Fuc(a1-2)[GalNAc(a1-3)]Gal(b1-4)GlcNAc(b1-6)]GalNAc
# Procedure, shortened: as §1
# [27] = target: Fuc(a1-2)[GalNAc(a1-3)]Gal(b1-4)GlcNAc(b1-6)GalNAc
# Procedure, shortened: as §1
# [28] = target: Fuc(a1-2)[GalNAc(a1-3)]Gal(b1-4)[Fuc(a1-3)]GlcNAc
# Procedure, shortened: as §1
# [29] = target: Fuc(a1-2)[GalNAc(a1-3)]Gal(b1-4)[Fuc(a1-3)]GlcNAc(b1-3)GalNAc
# Procedure, shortened: as §1
# [30] = target: Fuc(a1-2)[GalNAc(a1-4)]Gal(b1-4)GlcNAc
# Procedure, shortened: as §1
binder,measurement,setting,value
B1,glycan array binding signal (z-score),[1],-0.331
same,glycan array binding signal (z-score),[2],-0.328
same,glycan array binding signal (z-score),[3],-0.336
same,glycan array binding signal (z-score),[4],-0.292
same,glycan array binding signal (z-score),[5],-0.32
same,glycan array binding signal (z-score),[6],-0.344
same,glycan array binding signal (z-score),[7],-0.335
same,glycan array binding signal (z-score),[8],-0.331
same,glycan array binding signal (z-score),[9],-0.338
same,glycan array binding signal (z-score),[10],0.095
same,glycan array binding signal (z-score),[11],-0.258
same,glycan array binding signal (z-score),[12],-0.225
same,glycan array binding signal (z-score),[13],-0.172
same,glycan array binding signal (z-score),[14],-0.134
same,glycan array binding signal (z-score),[15],-0.311
same,glycan array binding signal (z-score),[16],-0.261
same,glycan array binding signal (z-score),[17],-0.309
same,glycan array binding signal (z-score),[18],0.055
same,glycan array binding signal (z-score),[19],-0.018
same,glycan array binding signal (z-score),[20],-0.167
same,glycan array binding signal (z-score),[21],-0.125
same,glycan array binding signal (z-score),[22],-0.325
same,glycan array binding signal (z-score),[23],0.422
same,glycan array binding signal (z-score),[24],0.209
same,glycan array binding signal (z-score),[25],-0.3
same,glycan array binding signal (z-score),[26],-0.246
same,glycan array binding signal (z-score),[27],-0.186
same,glycan array binding signal (z-score),[28],-0.252
same,glycan array binding signal (z-score),[29],-0.323
same,glycan array binding signal (z-score),[30],-0.215
